# Test results published in the supplement of paper PMC10126150.
# Sequences with one replicate were seen in a single cluster, so their values are uncertain.
# Test system: ATP
# Assay: switch fluorescence ratio, 500 uM ATP over buffer (Cy3 cluster intensity, sum of 5 cycles each) (fold (ratio)); higher = stronger signal-on switching upon ATP binding; sequences stand for … in TCGTCGGCAGCGTCAGATGTGTATAAGAGACAGTTTTTTTTTTTTTTTTTTTTTTTTT…TC
# Conditions: aptamer strand: ATP DNA aptamer (quencher-CACCTGGGGGAGTATTGCGGAGGAAGG + anchor), 100 nM annealed; ATP concentration: 500 uM; one replicate
# In short: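 Per cluster, summed Cy3 intensity from the target cycles was divided by that from the buffer cycles to give the fluorescence ratio, then averaged per switch-domain sequence. Clusters outside 100-1000 RFU were excluded. The Cy3-labelled switching-strand clusters, on a modified Illumina MiSeq flow-cell, were annealed to 100 nM quencher-labelled ATP aptamer and imaged in selection buffer, then after 15 min with 500 uM ATP at 22 °C, for five cycles with NaOH stripping and re-annealing between them.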
# 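Further: ATP exposure 15 min at 22 °C before imaging.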
row,Sequence,switch fluorescence ratio
1,TGGGGTTTTA,0.985
2,TGGGTACGG,1.04
3,TGGGTACTAA,0.993
4,TGGGTACTC,0.966
5,TGGGTATCAG,1
6,TGGGTCTTTC,1.03
7,TGGGTGAGCC,1.02
8,TGGGTGCGTA,0.945
9,TGGGTGGTAT,2.04
10,TGGGTGTAGT,1.05
11,TGGGTGTCTC,1.01
12,TGGGTTCGTT,0.998
13,TGGGTTGCTA,0.988
14,TGGGTTGGGC,0.975
15,TGGTAACAAG,1
16,TGGTAACGGG,1.01
17,TGGTAAGGGT,1.02
18,TGGTAATGCT,1.01
19,TGGTAGATCT,0.966
20,TGGTAGGTTT,1.01
21,TGGTAGTGTC,1.02
22,TGGTATCGGG,0.978
23,TGGTCATG,0.926
24,TGGTCCCGCG,0.977
25,TGGTCCGACT,1.02
26,TGGTCCTCTG,1.03

row,Sequence,switch fluorescence ratio
1,TGGTCGACCG,0.983
2,TGGTCGTAGA,1.03
3,TGGTCTGTCA,0.989
4,TGGTGACTGG,1.18
5,TGGTGAGGTT,1.01
6,TGGTGCTCGA,0.992
7,TGGTGGACTG,1.06
8,TGGTGGATAA,1.02
9,TGGTGGCACT,0.998
10,TGGTGGGACA,0.964
11,TGGTGGGTTG,0.985
12,TGGTGTAGTG,1.01
13,TGGTGTGTCT,0.972
14,TGGTTAGGCT,1.05
15,TGGTTCCAAT,0.993
16,TGGTTCCTCA,1.05
17,TGGTTGCTA,0.977
18,TGGTTTAAAC,1.02
19,TGGTTTAGGA,1.01
20,TGGTTTGCTC,0.967
21,TGTAACTTC,1.05
22,TGTAAGCGAT,1.15
23,TGTAAGGCTT,0.967
24,TGTAATAATT,1
25,TGTAATAGCT,1.24
26,TGTAATCGTG,0.986

row,Sequence,switch fluorescence ratio
1,TGTACGAAAG,1.03
2,TGTACGAATG,0.996
3,TGTACGACGC,1.74
4,TGTACGTAGT,0.969
5,TGTAGCGGC,1.47
6,TGTAGGCAAG,0.974
7,TGTAGGCGGG,0.953
8,TGTAGTACT,1.03
9,TGTATATAGT,0.998
10,TGTATCCGGT,0.981
11,TGTATCCTGT,0.972
12,TGTATCGAAG,0.965
13,TGTATCTTCC,2.66
14,TGTATGAGAG,1.01
15,TGTATGGAAT,1.16
16,TGTATGGGT,0.973
17,TGTATGGGTC,1.01
18,TGTATGGTAT,1.02
19,TGTATTGAGA,0.994
20,TGTATTGTTG,0.985
21,TGTCACCATT,1.06
22,TGTCAGATTT,0.989
23,TGTCATAGCA,1.02
24,TGTCATTACT,1.08
25,TGTCATTCAG,0.981
26,TGTCCGACGT,1.26

row,Sequence,switch fluorescence ratio
1,TGTCCGGCTT,0.986
2,TGTCCTAGGG,1.01
3,TGTCCTTTAG,0.959
4,TGTCGAATGC,0.951
5,TGTCGCCGTA,1.06
6,TGTCGGATAG,1.01
7,TGTCGGGTCT,1.08
8,TGTCGGTAAC,1.01
9,TGTCGTGCGA,0.976
10,TGTCGTTTTG,1.02
11,TGTCTGAAAT,1.04
12,TGTCTGTATG,1.03
13,TGTCTGTCAT,1.03
14,TGTCTTGCCC,1.02
15,TGTCTTTCTT,1.02
16,TGTGAAAAAT,0.999
17,TGTGAACCAA,1.01
18,TGTGAAGAAG,0.971
19,TGTGAAGGGA,0.997
20,TGTGACACGC,1.02
21,TGTGACATG,0.889
22,TGTGACCTTT,0.995
23,TGTGAGAATG,1
24,TGTGAGGAGG,0.982
25,TGTGAGGGAC,1.04
26,TGTGCAACTA,0.96

row,Sequence,switch fluorescence ratio
1,TGTGCACGGA,1.01
2,TGTGCCCCCG,1
3,TGTGCCGATG,0.976
4,TGTGCGTGCG,0.978
5,TGTGGCGGA,1.01
6,TGTGGGACAT,1.03
7,TGTGGTCAGC,0.995
8,TGTGTAATCG,0.99
9,TGTGTATGT,1.01
10,TGTGTGATTG,0.953
11,TGTGTGGGGC,0.969
12,TGTGTGGTG,0.961
13,TGTGTGTCTG,0.963
14,TGTGTTGTAA,0.987
15,TGTTAAAAGT,1.08
16,TGTTAAATCT,0.988
17,TGTTAACCGG,0.991
18,TGTTACACGG,0.954
19,TGTTAGAGTT,1.03
20,TGTTAGTGCA,0.972
21,TGTTATAGT,1.02
22,TGTTATGCAT,1.08
23,TGTTATGGGA,0.98
24,TGTTATGGGC,1.03
25,TGTTATTCTT,1.2
26,TGTTCAACCA,1

row,Sequence,switch fluorescence ratio
1,TGTTCAATTA,0.985
2,TGTTCAGTGG,1.02
3,TGTTCATGGG,1.01
4,TGTTCCACGT,1.05
5,TGTTCCTGTG,1.01
6,TGTTCCTTTG,1.03
7,TGTTCGAAT,1
8,TGTTCGGGAG,0.974
9,TGTTCGT,0.98
10,TGTTCGTATG,0.962
11,TGTTCGTGC,1.02
12,TGTTCTAGCG,1.02
13,TGTTCTTAAA,0.964
14,TGTTCTTAGA,1.02
15,TGTTGAGAAT,0.974
16,TGTTGAGACA,1
17,TGTTGATTAG,1.01
18,TGTTGCACAC,1.03
19,TGTTGCCATG,1
20,TGTTGCGTAA,0.996
21,TGTTGCTCGG,0.924
22,TGTTGGATGC,1.02
23,TGTTGGATGG,0.978
24,TGTTGGCAGT,1.03
25,TGTTGGCGCC,1.09
26,TGTTTAACGC,0.986

row,Sequence,switch fluorescence ratio
1,TGTTTAAGAT,1.02
2,TGTTTAATGG,1.02
3,TGTTTATAAC,0.965
4,TGTTTATT,1.01
5,TGTTTCTCAC,1.83
6,TGTTTGCTCC,1.01
7,TGTTTGGCAC,1.02
8,TGTTTGTCGA,1.06
9,TGTTTTGTAC,1.07
10,TTAAAATTTG,1
11,TTAAACCACG,1.07
12,TTAAAGTG,0.998
13,TTAAATACCC,2.81
14,TTAAATGCGA,1.03
15,TTAAATTT,0.979
16,TTAAATTTAT,0.954
17,TTAACAGCTC,1.03
18,TTAACATATG,1.04
19,TTAACCCCTG,1.03
20,TTAACCTATC,1.12
21,TTAACCTGAT,1.2
22,TTAACGAATA,1.01
23,TTAACGTATT,1.11
24,TTAAGAGCGC,1.08
25,TTAAGAGCGG,1.08
26,TTAAGCCAAC,1.08

row,Sequence,switch fluorescence ratio
1,TTAAGCGCTG,1
2,TTAAGGAGGC,1.02
3,TTAAGGATAA,1.02
4,TTAAGGCGTA,1
5,TTAAGGTACT,1.03
6,TTAAGTCGAT,0.985
7,TTAAGTGAGA,0.959
8,TTAAGTTTCG,0.987
9,TTAATACGCG,1.17
10,TTAATACGGG,1.04
11,TTAATAGC,1.06
12,TTAATATTT,1
13,TTAATCCGGT,0.955
14,TTAATCGTCA,0.982
15,TTAATGCGAG,1.02
16,TTAATTCTAA,1.02
17,TTAATTGTAC,1.08
18,TTAATTTCGT,1.01
19,TTAATTTGAT,1.01
